From the supplement of paper PMC3334620
Whole data set: some 33,000 sequences, median “E-score (-0.5 to 0.5)” near -0.041, cut for the highest 2% near 0.37. The list shows a part of the results.

Target: T1, Ecm22 (UniProt Q05958)
T1 sequence: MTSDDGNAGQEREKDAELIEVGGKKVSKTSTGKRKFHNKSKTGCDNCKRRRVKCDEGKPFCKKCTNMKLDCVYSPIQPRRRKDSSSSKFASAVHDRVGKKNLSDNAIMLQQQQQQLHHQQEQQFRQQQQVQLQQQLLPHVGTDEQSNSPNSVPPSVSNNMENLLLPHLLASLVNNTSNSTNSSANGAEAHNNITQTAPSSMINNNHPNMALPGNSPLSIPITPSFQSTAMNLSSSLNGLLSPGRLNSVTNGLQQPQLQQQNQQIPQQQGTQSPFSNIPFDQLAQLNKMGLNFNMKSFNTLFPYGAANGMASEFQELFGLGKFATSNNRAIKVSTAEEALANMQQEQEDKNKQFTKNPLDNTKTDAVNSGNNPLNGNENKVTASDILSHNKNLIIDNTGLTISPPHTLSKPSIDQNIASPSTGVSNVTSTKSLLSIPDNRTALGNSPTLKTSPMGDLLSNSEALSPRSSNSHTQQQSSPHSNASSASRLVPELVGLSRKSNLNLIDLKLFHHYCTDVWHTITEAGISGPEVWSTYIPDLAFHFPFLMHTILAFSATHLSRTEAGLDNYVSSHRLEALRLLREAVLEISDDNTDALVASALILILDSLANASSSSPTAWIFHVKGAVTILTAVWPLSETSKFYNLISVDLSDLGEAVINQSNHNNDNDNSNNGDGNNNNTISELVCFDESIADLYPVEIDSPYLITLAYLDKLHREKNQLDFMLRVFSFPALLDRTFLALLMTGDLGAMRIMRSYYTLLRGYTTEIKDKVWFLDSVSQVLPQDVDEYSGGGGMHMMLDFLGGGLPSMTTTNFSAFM
Assay: PBM E-score (8-mer binding enrichment) (E-score (-0.5 to 0.5)); higher = stronger / more preferred TF binding; most listed sequences are background and not binding sites
Conditions: protein concentration: 200 nM; construct: GST-full length
Method in brief: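 Bound GST-tagged yeast transcription factors, applied at about 100-200 nM to double-stranded universal all-10-mer Agilent arrays, were detected with fluorescent anti-GST. Scans were normalised with masliner. A modified Wilcoxon-Mann-Whitney statistic, the E-score, was assigned to each ungapped eight-base word pooled with its reverse complement by the Universal PBM Analysis Suite.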

Sequence	PBM E-score
CTGCTAAA	-0.118
AGTTACAT	-0.262
GCGGGACA	-0.135
CGTGGCGC	0.0496
AATTCCCA	-0.0276
GTTAGAGA	-0.12
AAACTAGA	-0.0931
CTCTACTC	-0.0652
AGAACTTA	-0.0305
CTTTCGAA	0.101
ATAGGTAC	0.205
AGACCATG	-0.252
ACCTAGGG	-0.0682
ATAATACA	0.153
CGAACAAC	0.252
CGTCAGCC	0.152
GATGAACC	-0.0354
ATAGTCCG	0.0396
GATGGGCC	0.0139
AGTCATAG	-0.195
GATGGCTA	-0.0273
TGAACACA	0.083
TAAGAGAA	-0.00589
CCCTTTCG	0.0713
AACTTCAC	0.0636

Sequence	PBM E-score
AGTTCTAG	-0.203
AGGCTAGC	-0.215
AACTGGGG	-0.113
CAGCCAAG	-0.163
ATGTAACG	0.101
AAAGACAC	0.00812
ATACTACC	-0.129
CGCAGCGA	0.18
CGCGCGTC	0.171
ATTGTCGC	0.0503
ATATGAGG	-0.147
AAGCAGTG	-0.186
GGCCACAA	-0.172
CGAAGCCC	0.0749
GAAACGGA	0.256
CGCAGGCC	-0.117
GGGTCCCA	-0.149
CCGGCACG	0.0502
AAAGCTAG	-0.197
CTCGAGGC	-0.0703
CGGCTAAG	-0.132
CCTCTATA	-0.0379
ACGAAAAA	0.249
CCCCGCAG	-0.0795
ACGGCTAG	0.0605

Sequence	PBM E-score
AACCCATT	-0.074
CCTGATGC	-0.0632
GGTGACTA	0.0186
ACTGTATG	0.092
CGGCCAGA	-0.192
GGGATCCA	-0.126
CACGTCAC	-0.154
CGTGTAGA	0.243
TGCGAGCA	0.238
CAATATAA	0.0331
ATATAACG	0.107
CGTACGGC	0.385
AAGAGTCG	0.0683
AGGTGACG	-0.0182
ATACCCAG	-0.201
ATTGAACA	-0.0167
CCCGAGAA	0.0887
AAGGGTAA	-0.079
GATGGTCA	-0.213
CCGAACGC	0.0747
ACACGAGG	0.324
CCAGAGGA	-0.192
AAATCAGG	-0.0883
CCTCCGAG	0.00229
TGCAAGAA	-0.0877

Sequence	PBM E-score
GGATCGGA	0.159
GAATGGAA	0.0415
CTTAGATC	-0.0158
CTGAACAA	0.0971
CGAAATCG	0.111
ACAGCTGA	-0.0667
ACGTCGGA	0.138
AGAATTAT	-0.0094
CATGGACG	-0.227
CGCGCCGC	-0.0283
CGCTCCCG	0.222
CTGTGCCA	-0.185
ACCAACCC	-0.0808
AGTCGGGC	0.077
ACTGCTCC	-0.225
GGAGCTGA	-0.13
AACGCGTG	0.115
CTTAAAAA	-0.137
AGGTTCAG	-0.0601
CTTCCTCC	-0.11
AAGTCACC	-0.0698
CTAAGCTA	-0.0681
AGAAGGGG	-0.227
CATCCTTA	0.00699
CCGCCTCA	-0.29

Sequence	PBM E-score
CCTGCGCG	0.0218
CCAGGGAG	-0.195
ATTGACTA	0.18
CTCTTGGA	-0.229
GAAATCTC	0.129
GGCCGTCA	-0.208
ATTTGATG	-0.073
CCACCATA	-0.121
ACGCTCTG	-0.0531
GTCTCCCA	-0.227
ACATTCAC	-0.103
CGAAGATA	0.233
ACGTTAAC	0.0525
CTTCGTGA	0.209
ATGGGTGC	-0.0714
AGGAGTCC	-0.248
AAACACTC	0.0184
AGGATCTC	-0.0803
CAACCGAC	0.241
CTGCACAA	-0.214
AGCACACA	-0.246
TCTGCACA	-0.184
GACTGTTA	-0.223
CTGTTCCA	-0.186
AAGCAGGC	-0.0779

Sequence	PBM E-score
ATCATCCG	0.175
TCGGCACA	-0.0471
ACCCGGCT	-0.0626
GACGGCCC	-0.108
CCGAGTTA	0.0641
ACCATGAC	-0.154
AAGTCTAG	-0.178
ACACAGTA	-0.0309
ATTTGACC	-0.00361
GCACCTGA	-0.27
GCAAGGAC	-0.0871
AAGACAAC	0.0597
GCGGAAAA	0.0523
AATCTAAA	-0.093
CTGATATC	-0.00762
AGATGAGA	-0.0713
ACCCTGAT	-0.24
AACGATGG	0.374
ACAGAACT	-0.0778
CAGTAGTC	-0.0281
GTCGAACA	0.095
ACTTTGAA	0.0449
CACCGCTC	-0.0206
ATCACCAC	0.132
ATAAGGGC	-0.128

Sequence	PBM E-score
AGGCAAAC	-0.0579
ACTTAGCG	0.142
GTGCACGA	0.0323
GGAGTGAC	-0.0351
CAGAGAGG	-0.324
CCTTCTCG	-0.103
ATGATATG	0.149
CAGACGCC	-0.107
CCGCCCAA	-0.189
AGGCGAAG	-0.173
GCGTTCCA	0.141
ATTTGCAG	-0.137
CAGAGGAG	-0.104
CAACGCTC	0.023
CCTTGGCC	-0.34
GCATATTA	0.101
GCGTTTCC	0.0822
AGTCGTAG	0.304
GAGTTCTA	-0.0413
ATGATTCG	0.179
CTACCTTA	-0.15
TACAGGAA	0.0905
